Reference: the supplement of paper PMC11876631
± gives the standard deviation of the averaged measurements. Laboratory Escherichia coli strains with one amino-acid change in an essential protein, pooled on minimal glucose agar with carbenicillin or gentamicin at twice the control MIC (plus kanamycin and chloramphenicol for the plasmids), 48 h. Fold change of barcode share against drug-free plates; higher = less susceptible. Active = above 20 in both replicates (the paper's putatively resistant). '<' = one read or none on drug, '>' = one read or none on a drug-free plate. Shares are relative, so most strains fall below 1 when a few take over. Listed are strains with at least 15 reads on both drug-free plates, and hits; most hits rest on fewer reference reads. Replicate rank correlation about 0.5. Edits are read from barcodes.

B1: pyrF L154W (protein)
chain: MTLTASSSSRAVTNSPVVVALDYHNRDDALAFVDKIDPRDCRLKVGKEMFTLFGPQFVRELQQRGFDIFLDLKFHDIPNTAAHAVAAAADLGVWMVNVHASGGARMMTAAREALVPFGKDAPLLIAVTVLTSMEASDLVDLGMTLSPADYAERWAALTQKCGLDGVVCSAQEAVRFKQVFGQEFKLVTPGIRPQGSEAGDQRRIMTPEQALSAGVDYMVIGRPVTQSVDPAQTLKAINASLQRSA
B2: pyrF L154Q (protein)
chain: MTLTASSSSRAVTNSPVVVALDYHNRDDALAFVDKIDPRDCRLKVGKEMFTLFGPQFVRELQQRGFDIFLDLKFHDIPNTAAHAVAAAADLGVWMVNVHASGGARMMTAAREALVPFGKDAPLLIAVTVLTSMEASDLVDLGMTLSPADYAERQAALTQKCGLDGVVCSAQEAVRFKQVFGQEFKLVTPGIRPQGSEAGDQRRIMTPEQALSAGVDYMVIGRPVTQSVDPAQTLKAINASLQRSA
B3: pyrF L154D (protein)
chain: MTLTASSSSRAVTNSPVVVALDYHNRDDALAFVDKIDPRDCRLKVGKEMFTLFGPQFVRELQQRGFDIFLDLKFHDIPNTAAHAVAAAADLGVWMVNVHASGGARMMTAAREALVPFGKDAPLLIAVTVLTSMEASDLVDLGMTLSPADYAERDAALTQKCGLDGVVCSAQEAVRFKQVFGQEFKLVTPGIRPQGSEAGDQRRIMTPEQALSAGVDYMVIGRPVTQSVDPAQTLKAINASLQRSA
B4: pyrF L154P (protein)
chain: MTLTASSSSRAVTNSPVVVALDYHNRDDALAFVDKIDPRDCRLKVGKEMFTLFGPQFVRELQQRGFDIFLDLKFHDIPNTAAHAVAAAADLGVWMVNVHASGGARMMTAAREALVPFGKDAPLLIAVTVLTSMEASDLVDLGMTLSPADYAERPAALTQKCGLDGVVCSAQEAVRFKQVFGQEFKLVTPGIRPQGSEAGDQRRIMTPEQALSAGVDYMVIGRPVTQSVDPAQTLKAINASLQRSA
B5: pyrG V413A (protein)
chain: MTTNYIFVTGGVVSSLGKGIAAASLAAILEARGLNVTIMKLDPYINVDPGTMSPIQHGEVFVTEDGAETDLDLGHYERFIRTKMSRRNNFTTGRIYSDVLRKERRGDYLGATVQVIPHITNAIKERVLEGGEGHDVVLVEIGGTVGDIESLPFLEAIRQMAVEIGREHTLFMHLTLVPYMAASGEVKTKPTQHSVKELLSIGIQPDILICRSDRAVPANERAKIALFCNVPEKAVISLKDVDSIYKIPGLLKSQGLDDYICKRFSLNCPEANLSEWEQVIFEEANPVSEVTIGMVGKYIELPDAYKSVIEALKHGGLKNRVSVNIKLIDSQDVETRGVEILKGLDAILVPGGFGYRGVEGMITTARFARENNIPYLGICLGMQVALIDYARHVANMENANSTEFVPDCKYPVAALITEWRDENGNVEVRSEKSDLGGTMRLGAQQCQLVDDSLVRQLYNAPTIVERHRHRYEVNNMLLKQIEDAGLRVAGRSGDDQLVEIIEVPNHPWFVACQFHPEFTSTPRDGHPLFAGFVKAASEFQKRQAK
B6: pyrG V413Q (protein)
chain: MTTNYIFVTGGVVSSLGKGIAAASLAAILEARGLNVTIMKLDPYINVDPGTMSPIQHGEVFVTEDGAETDLDLGHYERFIRTKMSRRNNFTTGRIYSDVLRKERRGDYLGATVQVIPHITNAIKERVLEGGEGHDVVLVEIGGTVGDIESLPFLEAIRQMAVEIGREHTLFMHLTLVPYMAASGEVKTKPTQHSVKELLSIGIQPDILICRSDRAVPANERAKIALFCNVPEKAVISLKDVDSIYKIPGLLKSQGLDDYICKRFSLNCPEANLSEWEQVIFEEANPVSEVTIGMVGKYIELPDAYKSVIEALKHGGLKNRVSVNIKLIDSQDVETRGVEILKGLDAILVPGGFGYRGVEGMITTARFARENNIPYLGICLGMQVALIDYARHVANMENANSTEFVPDCKYPVQALITEWRDENGNVEVRSEKSDLGGTMRLGAQQCQLVDDSLVRQLYNAPTIVERHRHRYEVNNMLLKQIEDAGLRVAGRSGDDQLVEIIEVPNHPWFVACQFHPEFTSTPRDGHPLFAGFVKAASEFQKRQAK
B7: pyrG V13A (protein)
chain: MTTNYIFVTGGVASSLGKGIAAASLAAILEARGLNVTIMKLDPYINVDPGTMSPIQHGEVFVTEDGAETDLDLGHYERFIRTKMSRRNNFTTGRIYSDVLRKERRGDYLGATVQVIPHITNAIKERVLEGGEGHDVVLVEIGGTVGDIESLPFLEAIRQMAVEIGREHTLFMHLTLVPYMAASGEVKTKPTQHSVKELLSIGIQPDILICRSDRAVPANERAKIALFCNVPEKAVISLKDVDSIYKIPGLLKSQGLDDYICKRFSLNCPEANLSEWEQVIFEEANPVSEVTIGMVGKYIELPDAYKSVIEALKHGGLKNRVSVNIKLIDSQDVETRGVEILKGLDAILVPGGFGYRGVEGMITTARFARENNIPYLGICLGMQVALIDYARHVANMENANSTEFVPDCKYPVVALITEWRDENGNVEVRSEKSDLGGTMRLGAQQCQLVDDSLVRQLYNAPTIVERHRHRYEVNNMLLKQIEDAGLRVAGRSGDDQLVEIIEVPNHPWFVACQFHPEFTSTPRDGHPLFAGFVKAASEFQKRQAK
B8: pyrG V295A (protein)
chain: MTTNYIFVTGGVVSSLGKGIAAASLAAILEARGLNVTIMKLDPYINVDPGTMSPIQHGEVFVTEDGAETDLDLGHYERFIRTKMSRRNNFTTGRIYSDVLRKERRGDYLGATVQVIPHITNAIKERVLEGGEGHDVVLVEIGGTVGDIESLPFLEAIRQMAVEIGREHTLFMHLTLVPYMAASGEVKTKPTQHSVKELLSIGIQPDILICRSDRAVPANERAKIALFCNVPEKAVISLKDVDSIYKIPGLLKSQGLDDYICKRFSLNCPEANLSEWEQVIFEEANPVSEVTIGMAGKYIELPDAYKSVIEALKHGGLKNRVSVNIKLIDSQDVETRGVEILKGLDAILVPGGFGYRGVEGMITTARFARENNIPYLGICLGMQVALIDYARHVANMENANSTEFVPDCKYPVVALITEWRDENGNVEVRSEKSDLGGTMRLGAQQCQLVDDSLVRQLYNAPTIVERHRHRYEVNNMLLKQIEDAGLRVAGRSGDDQLVEIIEVPNHPWFVACQFHPEFTSTPRDGHPLFAGFVKAASEFQKRQAK
B9: pyrG V295Q (protein)
chain: MTTNYIFVTGGVVSSLGKGIAAASLAAILEARGLNVTIMKLDPYINVDPGTMSPIQHGEVFVTEDGAETDLDLGHYERFIRTKMSRRNNFTTGRIYSDVLRKERRGDYLGATVQVIPHITNAIKERVLEGGEGHDVVLVEIGGTVGDIESLPFLEAIRQMAVEIGREHTLFMHLTLVPYMAASGEVKTKPTQHSVKELLSIGIQPDILICRSDRAVPANERAKIALFCNVPEKAVISLKDVDSIYKIPGLLKSQGLDDYICKRFSLNCPEANLSEWEQVIFEEANPVSEVTIGMQGKYIELPDAYKSVIEALKHGGLKNRVSVNIKLIDSQDVETRGVEILKGLDAILVPGGFGYRGVEGMITTARFARENNIPYLGICLGMQVALIDYARHVANMENANSTEFVPDCKYPVVALITEWRDENGNVEVRSEKSDLGGTMRLGAQQCQLVDDSLVRQLYNAPTIVERHRHRYEVNNMLLKQIEDAGLRVAGRSGDDQLVEIIEVPNHPWFVACQFHPEFTSTPRDGHPLFAGFVKAASEFQKRQAK
B10: pyrG V295P (protein)
chain: MTTNYIFVTGGVVSSLGKGIAAASLAAILEARGLNVTIMKLDPYINVDPGTMSPIQHGEVFVTEDGAETDLDLGHYERFIRTKMSRRNNFTTGRIYSDVLRKERRGDYLGATVQVIPHITNAIKERVLEGGEGHDVVLVEIGGTVGDIESLPFLEAIRQMAVEIGREHTLFMHLTLVPYMAASGEVKTKPTQHSVKELLSIGIQPDILICRSDRAVPANERAKIALFCNVPEKAVISLKDVDSIYKIPGLLKSQGLDDYICKRFSLNCPEANLSEWEQVIFEEANPVSEVTIGMPGKYIELPDAYKSVIEALKHGGLKNRVSVNIKLIDSQDVETRGVEILKGLDAILVPGGFGYRGVEGMITTARFARENNIPYLGICLGMQVALIDYARHVANMENANSTEFVPDCKYPVVALITEWRDENGNVEVRSEKSDLGGTMRLGAQQCQLVDDSLVRQLYNAPTIVERHRHRYEVNNMLLKQIEDAGLRVAGRSGDDQLVEIIEVPNHPWFVACQFHPEFTSTPRDGHPLFAGFVKAASEFQKRQAK
B11: pyrG M39A (protein)
chain: MTTNYIFVTGGVVSSLGKGIAAASLAAILEARGLNVTIAKLDPYINVDPGTMSPIQHGEVFVTEDGAETDLDLGHYERFIRTKMSRRNNFTTGRIYSDVLRKERRGDYLGATVQVIPHITNAIKERVLEGGEGHDVVLVEIGGTVGDIESLPFLEAIRQMAVEIGREHTLFMHLTLVPYMAASGEVKTKPTQHSVKELLSIGIQPDILICRSDRAVPANERAKIALFCNVPEKAVISLKDVDSIYKIPGLLKSQGLDDYICKRFSLNCPEANLSEWEQVIFEEANPVSEVTIGMVGKYIELPDAYKSVIEALKHGGLKNRVSVNIKLIDSQDVETRGVEILKGLDAILVPGGFGYRGVEGMITTARFARENNIPYLGICLGMQVALIDYARHVANMENANSTEFVPDCKYPVVALITEWRDENGNVEVRSEKSDLGGTMRLGAQQCQLVDDSLVRQLYNAPTIVERHRHRYEVNNMLLKQIEDAGLRVAGRSGDDQLVEIIEVPNHPWFVACQFHPEFTSTPRDGHPLFAGFVKAASEFQKRQAK

target: Escherichia coli (laboratory strain); assay: barcode share on antibiotic plates over drug-free plates; higher = less susceptible; details: antibiotic: carbenicillin; 2× MIC (3.1 µg/mL)
Method: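 A pool of E. coli strains, each edited to carry one amino-acid change in an essential protein, was grown for 48 h on minimal glucose agar with or without antibiotic; strain barcodes were sequenced; mean of two replicates.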

| Protein | fold change of barcode share |
| --- | --- |
| B1 | 0.678 ± 0.28 |
| B2 | 0.887 ± 0.074 |
| B3 | 2.35 ± 0.09 |
| B4 | 46.1 [active] |
| B5 | 0.65 ± 0.07 |
| B6 | 1.14 ± 0.44 |
| B7 | 0.333 ± 0.13 |
| B8 | 0.304 ± 0.18 |
| B9 | 0.188 ± 0.0032 |
| B10 | 0.251 ± 0.1 |
| B11 | 0.188 ± 0.0099 |

same assay, conditions: antibiotic: gentamicin; 2× MIC (MIC 0.45 µg/mL)

| Protein | fold change of barcode share |
| --- | --- |
| B1 | 0.713 ± 0.63 |
| B2 | 0.0532 ± 0.014 |
| B3 | 0.034 ± 0.0045 |
| B5 | < 0.00308 |
| B6 | 0.0638 ± 0.015 |
| B7 | < 0.00544 |
| B8 | 0.00462 ± 0.0037 |
| B9 | 0.00914 ± 0.0076 |
| B10 | < 0.00283 |
| B11 | 0.0149 ± 0.014 |
